One molecule from paper PMC12276331 (2025) can be followed below.

Holding throughout (test): single bond, SMFS Bell-Evans
Test [1] concerns the target hIgG1.
In test [2] the target is hIgG2A.
Test [3] deals with hIgG4.
Test [4] addresses hIgG2B.

B1: transmembrane hCD40 receptor expressed on the surface of CHO cells (CHO-CD40-GFP) (receptor)
chain: [about 150 residues not written out]ALVVIPIIFGILFAILLVLVFIKKVAKKPTNKAPHPKQEPQEINFPDDLPGSNTAAPVQETLHGCQPVTQEDGKESRISVQERQ
For B1, the koff was 0.041 s⁻¹ in test [1], 0.029 s⁻¹ in test [2], 0.041 s⁻¹ in test [3] and 0.03 s⁻¹ in test [4].

In general, koff refers to the rate constant with which the complex falls apart.
